The campaign covered roughly 310,000 compounds. About 2,200 (0.71%) showed an effect of 50% or more. Effects have a minus sign here. This is one part of the list.
Target: human ether-à-go-go-related gene (hERG) potassium channel (human, UniProt Q12809)
Test: primary screen, population patch clamp on CHO cells stably expressing hERG

Chain of human ether-à-go-go-related gene (hERG) potassium channel (Q12809 whole entry, looked up): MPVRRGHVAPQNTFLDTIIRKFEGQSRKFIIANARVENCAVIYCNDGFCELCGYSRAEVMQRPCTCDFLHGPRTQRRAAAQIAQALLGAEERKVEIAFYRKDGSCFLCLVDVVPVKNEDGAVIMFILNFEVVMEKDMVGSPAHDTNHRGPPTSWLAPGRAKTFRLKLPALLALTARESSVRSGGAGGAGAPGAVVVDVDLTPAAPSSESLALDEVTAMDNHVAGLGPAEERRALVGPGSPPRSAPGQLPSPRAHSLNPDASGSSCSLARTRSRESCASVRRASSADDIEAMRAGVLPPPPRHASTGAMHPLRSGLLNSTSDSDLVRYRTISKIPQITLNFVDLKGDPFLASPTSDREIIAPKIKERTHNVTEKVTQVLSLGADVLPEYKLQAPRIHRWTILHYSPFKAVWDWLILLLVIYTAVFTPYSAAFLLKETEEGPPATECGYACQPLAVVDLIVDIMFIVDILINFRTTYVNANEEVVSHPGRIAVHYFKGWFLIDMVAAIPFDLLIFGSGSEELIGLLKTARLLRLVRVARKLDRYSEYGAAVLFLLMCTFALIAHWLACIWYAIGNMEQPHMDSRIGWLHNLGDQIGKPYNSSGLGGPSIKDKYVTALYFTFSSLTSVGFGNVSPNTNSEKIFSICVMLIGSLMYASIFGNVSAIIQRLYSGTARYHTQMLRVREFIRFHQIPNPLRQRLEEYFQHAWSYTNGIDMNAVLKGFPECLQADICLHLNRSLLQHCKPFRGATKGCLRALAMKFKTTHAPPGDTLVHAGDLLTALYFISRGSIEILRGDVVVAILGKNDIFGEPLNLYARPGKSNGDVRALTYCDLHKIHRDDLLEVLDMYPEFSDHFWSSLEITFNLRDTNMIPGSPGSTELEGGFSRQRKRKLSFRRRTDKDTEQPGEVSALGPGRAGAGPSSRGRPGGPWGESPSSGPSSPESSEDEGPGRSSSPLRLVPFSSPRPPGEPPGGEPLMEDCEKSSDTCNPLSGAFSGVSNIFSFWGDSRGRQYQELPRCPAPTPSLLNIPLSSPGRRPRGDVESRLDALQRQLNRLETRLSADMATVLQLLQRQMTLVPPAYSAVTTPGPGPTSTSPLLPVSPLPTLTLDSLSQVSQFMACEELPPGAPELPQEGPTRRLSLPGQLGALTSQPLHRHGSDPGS

Row | SMILES | hERG current change (%, negative = inhibition) at 1uM
1 | Cc1cccc(/C=C/c2onc(C)c2S(=O)(=O)N2CCC(C(=O)N3CCC(C)CC3)CC2)c1 | 15.5%
2 | Br.Oc1ccc(C2CNCc3sccc32)cc1O (stereo not drawn) | 3%
3 | CCC(=O)c1ccc(N2CCN(C(=O)Cc3ccccc3)CC2)c(F)c1 | 3.13%
4 | CC(=O)c1ccc(OCCCC(=O)NCC(c2ccco2)N(C)C)cc1 (stereo not drawn) | -7%
5 | C/C(CC(=O)Nc1ccc2c(c1)OCCO2)=N\NC(=O)c1ccccn1 | 15.8%
6 | CCOc1ccc(N2CC(C(=O)NNC(=O)c3ccc(Br)cc3)CC2=O)cc1 (stereo not drawn) | 10.2%
7 | CN(C(=O)CSc1nc2c(c(=O)[nH]1)CCCC2)C1CCCCC1 | 2.05%
8 | CSc1cccc(N2CC(C(=O)N(Cc3nnc(-c4ccccc4Cl)o3)C3CC3)CC2=O)c1 (stereo not drawn) | -5.53%
9 | O=C(O)CCC(=O)N1N=C(c2ccccc2)CC1c1ccc2nccnc2c1 (stereo not drawn) | 3.95%
10 | COc1ccc(CCNC(=O)C23CCC(C)(C(=O)C2Br)C3(C)C)cc1OC (stereo not drawn) | 11.3%
11 | O=C1CCN(N=Nc2cccc(Cl)c2)N1 | 3.87%
12 | O=C(COC(=O)c1ccc2c(c1)OCO2)NCc1ccc2c(c1)OCO2 | -5.64%
13 | COc1cc(/C=C/C(=O)Nc2cccc(S(=O)(=O)NC3=NCCCCC3)c2)ccc1OCC#N | 8.06%
14 | COc1cc2c(cc1NC(=O)CSc1cccc[n+]1[O-])oc1ccccc12 | 4.85%
15 | c1ccc2c(c1)SCc1nnc(-c3ccncc3)n1-2 | 10%
16 | COCCNC(=O)C1CC(c2cccc(F)c2)=NO1 (stereo not drawn) | 2.5%
17 | COc1ccc(/C=C/c2nnc(NC(=O)CSc3ccc(C)cc3)s2)cc1 | 16.7%
18 | CC1CCN(C(=O)COC(=O)CNC(=O)C23CC4CC(CC(C4)C2)C3)CC1 | 4.31%
19 | CC1CCCN(C(=O)Cn2c(=O)oc3ccccc32)C1 (stereo not drawn) | 7.25%

Row | SMILES | hERG current change (%, negative = inhibition) at 1uM
20 | CC1CN(C(=O)c2cc(Br)c(Br)s2)CC(C)O1 (stereo not drawn) | 6.69%
21 | Cc1nn(Cc2ccccc2)c(C)c1NC(=O)Cn1nc([N+](=O)[O-])c(Cl)c1C | 6.51%
22 | Cl.N=C(N)SCc1ccccn1 | 3.39%
23 | COC(CN(C(=O)CCl)C(C(=O)NC1CCCCC1)c1ccc(Cl)cc1)OC (stereo not drawn) | 11.2%
24 | COC(=O)c1ccc(NCCC(=O)O)cc1 | 2.12%
25 | COc1ccc(CCOC(=O)c2cccc(NC(C)=O)c2)cc1 | 9.17%
26 | N#CC(C#N)=C(Nc1ccc(F)cc1)SCc1cccc(Br)c1 | 10.6%
27 | Cc1cc(C)c(Nc2ncnc(N)n2)c(C)c1 | 8.3%
28 | Cc1cc(Br)c2[nH]c3c(c2c1)CCCC3=O | 3.53%
29 | COC(=O)c1sc(S(=O)(=O)N2CC(C)OC(C)C2)c(C(=O)OC)c1C (stereo not drawn) | 11%
30 | COc1cccc(/C=N/NC(=O)C(=O)NCc2ccco2)c1OC | 11.6%
31 | O=C(N/N=C\c1ccncc1)c1ccc(Br)s1 | 16.4%
32 | Cc1cccc(C)c1OCc1cc(C(=O)NC2CCC2)no1 | 14.3%
33 | COc1ccc(-c2nn(C)c(=O)c3ccccc23)cc1NC(=O)COc1ccc(C)cc1 | 1.89%
34 | O=C(NCSc1ccccc1)c1ccccc1 | 9.21%
35 | CC(=O)NN1C(=O)c2ccccc2NC1c1ccccn1 (stereo not drawn) | 15.9%
36 | COc1ccc(C(=O)NCc2nnc(SCC(=O)N3CCCC3)o2)cc1 | 13.2%
37 | O=[N+]([O-])c1ccc(CCNc2cccc3ccccc23)c([N+](=O)[O-])c1 | 9.24%
38 | COc1cccc(NC(=S)NNC(=O)c2ccccc2OC(F)F)c1 | 7.66%

Row | SMILES | hERG current change (%, negative = inhibition) at 1uM
39 | COc1ccc(C)cc1NC(=O)CNC(=O)c1sc2ccccc2c1Cl | 10.8%
40 | O=C(NCCc1ccc(Cl)cc1Cl)c1cc([N+](=O)[O-])c[nH]c1=O | 19.2%
41 | Cc1nn(-c2ccccc2)c(C)c1C(=O)Nc1ccc(N2CCOCC2)cc1 | 9.67%
42 | Cl.Fc1ccc(C(OCCN2CCCC2)c2ccc(F)cc2)cc1 | -37.9%
43 | COc1cc(C2C3=C(CCCC3=O)Nc3ccc4ncccc4c32)ccc1O (stereo not drawn) | 9.67%
44 | COc1ccc(CNC(=O)c2c(O)c3ccccc3n(C)c2=O)cc1OC | 6.33%
45 | CCCCCCC(=O)Nc1ccc(Cl)cn1 | 12.1%
46 | COc1ccc(S(=O)(=O)N2CCN(CC(=O)Nc3cc(OC)cc(OC)c3)CC2)cc1 | 0.704%
47 | NC(=O)C1CCN(C(=O)CC(c2ccccc2)c2ccccc2)CC1 | 11.2%
48 | COc1ccc(N(CC(=O)Nc2ccc(C)c(C)c2)S(=O)(=O)c2c(C)noc2C)cc1 | 10.3%
49 | COc1cc(/C=C2/SC(=S)N(Cc3ccccc3)C2=O)ccc1OS(C)(=O)=O | 17.1%
50 | O=C(NCCC(=O)N1CCN(S(=O)(=O)c2ccc(F)cc2)CC1)Nc1ccccc1 | 5.45%
51 | Cc1ccc(/C=N/N(C)C2=NS(=O)(=O)c3ccccc32)cc1 | 8.77%
52 | Cc1ccc(C(=O)COC(=O)c2ccccc2NC(=O)c2ccccc2)cc1[N+](=O)[O-] | 7.83%
53 | O=C(CNC(=O)c1ccc(Br)cc1)N/N=C/c1cccnc1 | 4.68%
54 | C=CCc1c(C)[nH]c2c(OC)cccc2c1=S | 9.29%
55 | CC(C)c1ccccc1NC(=O)COC(=O)Cc1ccsc1 | 13.4%
56 | CCN1C(=O)[C@@H]2[C@@H](c3ccc(-c4ccc(Cl)c(Cl)c4)cc3)N3CCCC[C@@]3(C(=O)OC)[C@@H]2C1=O.O=C(O)C(F)(F)F | 13.4%
57 | O=C(CC1C(=O)NCCN1C(=O)Nc1ccccc1)Nc1cccc(C(F)(F)F)c1 (stereo not drawn) | 2.28%

— PMC4336329 (PLoS ONE, 2015)
